Source: paper PMC5522996, “Big conductance calcium‐activated potassium channel openers control spasticity without sedation” (British Journal of Pharmacology, 2017)

Tests used:
cytochrome p450 enzymes = assay: Inhibition of cytochrome p450 enzymes (summary); type: in vitro ADME, human; conditions: 10 μM
hGPR55 (HEK293.GPR55) = biological target: T1, hGPR55 (HEK293.GPR55) (Homo sapiens, UniProt Q9Y2T6); assay: Ca2+ Ion Flux assay, HEK293.GPR55; type: cell-based; conditions: Figure S5E
T1 construct: expressed in transfected cells; host or cells: HEK293

healthy humans = assay: Phase I single dose: heart rate and blood pressure supine/standing

T1 sequence (Q9Y2T6 whole entry): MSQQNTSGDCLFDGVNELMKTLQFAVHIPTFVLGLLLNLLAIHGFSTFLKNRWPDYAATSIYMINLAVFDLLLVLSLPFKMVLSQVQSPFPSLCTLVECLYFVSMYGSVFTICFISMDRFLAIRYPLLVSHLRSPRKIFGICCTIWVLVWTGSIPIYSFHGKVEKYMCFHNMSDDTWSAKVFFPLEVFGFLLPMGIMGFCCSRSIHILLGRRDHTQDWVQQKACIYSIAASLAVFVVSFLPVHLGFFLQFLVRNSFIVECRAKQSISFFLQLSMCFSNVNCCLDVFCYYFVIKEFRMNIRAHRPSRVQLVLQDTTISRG

`C[C@H](CO)NC(=O)c1cccc(/C=C\CCCC(=O)N(C)C)c1` [VSN16R] was tested, and the “Inhibition of cytochrome p450 enzymes” value (cytochrome p450 enzymes) was “no significant inhibition”, the “Calcium fluxes in HEK293.GPR55” value (hGPR55 (HEK293.GPR55)) was “do not respond” and the “Diastolic Blood Pressure Standing” value (healthy humans; 25mg, 30min) was 75 ± 6 mm Hg. The “Diastolic Blood Pressure Supine” value (healthy humans; 25mg, 30min) was 65 ± 5 mm Hg, the “Systolic Blood Pressure Supine” value (healthy humans; 25mg, 30min) was 115 ± 7 mm Hg and the “Diastolic Blood Pressure Standing” value (healthy humans; 25mg, 60min) was 75 ± 7 mm Hg. For the same compound, the “Heart Rate Supine” value (healthy humans; 25mg, 60min) was 54 ± 9 bpm, the “Systolic Blood Pressure Supine” value (healthy humans; 25mg, 60min) was 114 ± 5 mm Hg and the “Diastolic Blood Pressure Standing” value (healthy humans; 800mg, 30min) was 80 ± 9 mm Hg. The “Systolic Blood Pressure Supine” value (healthy humans; 800mg, 30min) was 115 ±9 mm Hg, the “Diastolic Blood Pressure Standing” value (healthy humans; 800mg, 60min) was 81 ± 10 mm Hg and the “Heart Rate Supine” value (healthy humans; 800mg, 60min) was 59 ± 6 bpm. The “Systolic Blood Pressure Standing” value (healthy humans; 800mg, 60min) was 120 ± 8 mm Hg, the “Systolic Blood Pressure Supine” value (healthy humans; 800mg, 60min) was 117 ± 7 mm Hg and the Hypotension (healthy humans; humans) was “did not induce hypotension”.
